B1: PhoQ; a variant is named by its letters at X, in order, P23837 (parent)
chain: MKKLLRLFFPLSLRVRFLLATAAVVLVLSLAYGMVALIGYSVSFDKTTFRLLRGESNLFYTLAKWENNKLHVELPENIDKQSPTMTLIYDENGQLLWAQRDVPWLMKMIQPDWLKSNGFHEIEADVNDTSLLLSGDHSIQQQLQEVREDDDDAEMTHSVAVNVYPATSRMPKLTIVVVDTIPVELKSSYMVWSWFIYVLSANLLLVIPLLWVAAWWSLRPIEALAKEVRELEEHNRELLNPATTRELTSLVRNLNRLLKSERERYDKYRTTLTDLTHSLKTPLXXLQXXLRSLRSEKMSVSDAEPVMLEQISRISQQIGYYLHRASMRGGTLLSRELHPVAPLLDNLTSALNKVYQRKGVNISLDISPEISFVGEQNDFVEVMGNVLDNACKYCLEFVEISARQTDEHLYIVVEDDGPGIPLSKREVIFDRGQRVDTLRPGQGVGLAVAREITEQYEGKIVAGESMLGGARMEVIFGRQHSAPKDE

The other results are listed elsewhere or left out. A value given as a limit tells only on which side of the number the result lay.

Variants of B1 are the subject of the assay. The assay can be described thus: enrichment ratio after two sorts for PhoP signalling (ratio (wild type AVST 3.29)); higher = more functional. Conditions: with PhoP (E. coli).
Turning to VYAN, the enrichment ratio is not above 0.25.
Then NVMR, with not above 0.25; and MYEL, with not above 0.25; and SQPM, with not above 0.25.
To MYIH belongs not above 0.25; to PNFF, not above 0.25; to DDWN, not above 0.25.
As to MYPP, the enrichment ratio was not above 0.25.
Then PQCK, with not above 0.25.
Then RGWH, with not above 0.25; and CSSF, with not above 0.25; and MCWN, with 16.1.
To THLY belongs 0.451; to SQMI, 7.19; to AGYI, 0.303.
In the case of KRYY, the enrichment ratio is not above 0.25.
Consider AKSS, for which the enrichment ratio was 8.3.
To EASH belongs not above 0.25; to GRAD, not above 0.25; to RRIN, not above 0.25.
EVEM: the enrichment ratio was not above 0.25.
Then DHKY, with not above 0.25; and YPDY, with not above 0.25; and IGIL, with not above 0.25.
For the variant APAQ, the enrichment ratio is not above 0.25.
To LDQE belongs not above 0.25.
For HRSS, the enrichment ratio is not above 0.25.
Then GDHE, with not above 0.25; and MMSD, with not above 0.25; and QNCV, with not above 0.25.
To HKCP belongs not above 0.25.
To VMME belongs not above 0.25; to NQGF, not above 0.25.
For SLWN, the enrichment ratio is not above 0.25.
ISYN: the enrichment ratio was not above 0.25.
For PLVA, the enrichment ratio was not above 0.25.
Then AAVM, with 6.25.
FQVF: the enrichment ratio is not above 0.25.
To AMLA belongs 2.05; to HTNA, not above 0.25.
To HVHI belongs not above 0.25.
For the variant YKSK, the enrichment ratio is not above 0.25.
To GQRK belongs not above 0.25; to IAWC, not above 0.25.
On to CGFH, for which the enrichment ratio was not above 0.25.
Then EVKI, with not above 0.25.
Then MCYL, with 13.
To PVLF belongs 0.26.
In the case of SKAI, the enrichment ratio came out at 14.
Then IIDY, with not above 0.25; and DNEC, with not above 0.25; and VRPS, with not above 0.25.
Take YEEF: the enrichment ratio was not above 0.25.
To WLKK belongs not above 0.25; to IENY, not above 0.25; to QLMT, not above 0.25.
As for KMVG, the enrichment ratio is not above 0.25.
To TEHM belongs 58.9; to IGSL, not above 0.25.
As for WCVK, the enrichment ratio was not above 0.25.
To EYHT belongs not above 0.25; to FGDN, not above 0.25; to NTGR, not above 0.25.
Then FFHM, with 0.397; and NAPR, with not above 0.25.
Then HFSD, with not above 0.25; and RDDA, with not above 0.25.
On to AFVP, for which the enrichment ratio is not above 0.25.
SRGH: the enrichment ratio is not above 0.25.
For YDIF, the enrichment ratio was not above 0.25.
As to DMNW, the enrichment ratio is not above 0.25.
To PQFM belongs not above 0.25; to EVKH, not above 0.25; to VVSH, 1.4.
To FNYC belongs not above 0.25; to GTGQ, not above 0.25; to QSNF, 5.26.
APWI: the enrichment ratio was not above 0.25.
To VFHM belongs not above 0.25; to LETC, not above 0.25; to ERSL, not above 0.25.
Then NFTK, with not above 0.25; and FCYP, with not above 0.25.
On to DNSY, for which the enrichment ratio was not above 0.25.
Take TYSW: the enrichment ratio is not above 0.25.
To YTFM belongs not above 0.25; to TEEN, 3.06; to TDAY, 0.283.
On to MRNT, for which the enrichment ratio is not above 0.25.
To RHVL belongs not above 0.25.
To IEVS belongs 3.53.
For HGRM, the enrichment ratio was not above 0.25.
Take LAHK: the enrichment ratio was not above 0.25.
As to IGEP, the enrichment ratio is not above 0.25.
To KAIG belongs not above 0.25; to PNAE, not above 0.25; to VNEF, not above 0.25.
To DFRM belongs not above 0.25; to SESR, 4.3.
Then GIKS, with not above 0.25; and KSMN, with not above 0.25; and YHKE, with not above 0.25.
As to TRRF, the enrichment ratio is not above 0.25.
In the case of LSKY, the enrichment ratio is not above 0.25.
To TLHR belongs not above 0.25.
Consider DTMT, for which the enrichment ratio is not above 0.25.
On to DHEI, for which the enrichment ratio was not above 0.25.
Turning to YTEL, the enrichment ratio was not above 0.25.
Consider QSIW, for which the enrichment ratio is not above 0.25.
For KHPR, the enrichment ratio was not above 0.25.
IHTR: the enrichment ratio is not above 0.25.
In the case of HRLT, the enrichment ratio was not above 0.25.
Then FETH, with not above 0.25; and QHHS, with not above 0.25; and PLNR, with not above 0.25.
To GTGN belongs not above 0.25; to GFPW, not above 0.25; to GMAS, 2.92.
To HKFS belongs not above 0.25; to IQEG, not above 0.25; to PELC, not above 0.25.
For the variant LRMS, the enrichment ratio is not above 0.25.
To DPNW belongs not above 0.25; to VEYI, not above 0.25; to HPRA, not above 0.25.
Then GSLE, with 1.76; and DQRR, with not above 0.25.
Turning to VENY, the enrichment ratio is not above 0.25.
Take FMLV: the enrichment ratio is not above 0.25.
Then NRVS, with 0.327; and YFPT, with 0.681.
Turning to LSWP, the enrichment ratio is not above 0.25.
Then NGMQ, with not above 0.25.
To DFIQ belongs not above 0.25.
Then QHGF, with 5.15; and RTND, with not above 0.25.
For QMVM, the enrichment ratio was not above 0.25.
Then RVLE, with not above 0.25; and APVT, with not above 0.25.
Then RGNV, with not above 0.25; and MPIC, with not above 0.25.
Then TWPR, with not above 0.25; and AASS, with 5.47.
PIWA: the enrichment ratio was not above 0.25.
WMCA: the enrichment ratio was not above 0.25.
As to RWGL, the enrichment ratio was not above 0.25.
Consider YYSQ, for which the enrichment ratio was not above 0.25.
Then TYYL, with not above 0.25.
To TWST belongs not above 0.25.
As for TVPH, the enrichment ratio is not above 0.25.
As to WALW, the enrichment ratio is not above 0.25.
To DKAN belongs not above 0.25; to RRQI, not above 0.25.
To LHNY belongs not above 0.25; to PQKI, not above 0.25; to TENH, 9.29.
Regarding YIMS, the enrichment ratio was not above 0.25.
To SDML belongs 6.69.
Consider EAIH, for which the enrichment ratio is not above 0.25.
Then MSNG, with not above 0.25.
To YYFC belongs not above 0.25; to FTRQ, not above 0.25.
Then QDCE, with not above 0.25.
For PGVP, the enrichment ratio is not above 0.25.
With ITAL, the enrichment ratio came to 0.733.
For the variant RLWW, the enrichment ratio was not above 0.25.
Take GQNF: the enrichment ratio is not above 0.25.
For EHWY, the enrichment ratio was not above 0.25.
Turning to LVFV, the enrichment ratio is not above 0.25.
Then WWLV, with not above 0.25; and HQVD, with not above 0.25; and ARQM, with not above 0.25.
Then HFDM, with not above 0.25; and HFAE, with not above 0.25; and WLFT, with not above 0.25.
With TFGS, the enrichment ratio amounted to 1.72.
To MFKY belongs not above 0.25.
To IPLL belongs not above 0.25.
To NGYN belongs not above 0.25.
Turning to TDNA, the enrichment ratio is not above 0.25.
As for LQYY, the enrichment ratio is not above 0.25.
To FKTH belongs not above 0.25; to EFRG, not above 0.25; to KCYF, not above 0.25.
Then QERM, with not above 0.25.
Regarding MVPM, the enrichment ratio was not above 0.25.
Then YYVE, with not above 0.25.
On to EFLV, for which the enrichment ratio was not above 0.25.
For NAHE, the enrichment ratio was not above 0.25.
Take ATPN: the enrichment ratio was not above 0.25.
Regarding FWDE, the enrichment ratio is not above 0.25.
Regarding GYGP, the enrichment ratio was not above 0.25.
Regarding SHLF, the enrichment ratio came out at 8.04.
On to PRVT, for which the enrichment ratio is not above 0.25.
Then AMRI, with not above 0.25.

The values above are taken from a collection of fitness landscapes (doi:10.1126/science.1257360).
